Like-named read-outs stand apart in the source and are kept apart here.
Key:
[1] = system: matrix-associated (LTBP1/LTBP3) and cell-associated (GARP/LRRC33) proTGFβ1 complexes; assay: Octet: average KD and fold bias, matrix- vs cell-associated complexes; assay type: binding, human; settings: average KD of (B) and (C), read-out: (D) ECM AVRG
[2] = system: hLTBP1-/hLTBP3-proTGFβ1 vs hGARP-/hLRRC33-proTGFβ1 complexes; assay: Solution equilibrium titration: relative affinity (bias) LTBP complexes vs cell-associated complexes; assay type: binding, human
From the text: Context-biased: As used herein, “context-biased antibodies” refer to a type of conformational antibodies that binds an antigen with differential affinities when the antigen is associated with (i.e., bound to or attached to) an interacting protein or a fragment thereof. Thus, a context-biased antibody that specifically binds an epitope within proTGFβ1 may bind LTBP1-proTGFβ1, LTBP3-proTGFβ1, GARP-proTGFβ1 and LRRC33-proTGFβ1 with different affinities. […] Relative affinities of [matrix-associated complexes]: [cell-associated complexes] may be obtained by taking average KD values of the former, taking average KD values of the latter, and calculating the ratio of the two, as exemplified herein.
In a yet further aspect, the present disclosure provides context-biased TGFβ1 inhibitors. The context-biased antibodies include LTBP-biased antibodies with higher affinities for ECM-associated LLCs than for cell-associated LLCs wherein the affinities are measured at equilibrium.

[3] = biological target: T1, recombinant human LTBP1-proTGFβ1 complex (Homo sapiens, UniProt P01137); assay: Octet (Biolayer Interferometry) in vitro kinetic binding; settings: in M
T1 construct: made in house; host or cells: Expi293F cells, transient co-transfection
T1 sequence (P01137 30-390): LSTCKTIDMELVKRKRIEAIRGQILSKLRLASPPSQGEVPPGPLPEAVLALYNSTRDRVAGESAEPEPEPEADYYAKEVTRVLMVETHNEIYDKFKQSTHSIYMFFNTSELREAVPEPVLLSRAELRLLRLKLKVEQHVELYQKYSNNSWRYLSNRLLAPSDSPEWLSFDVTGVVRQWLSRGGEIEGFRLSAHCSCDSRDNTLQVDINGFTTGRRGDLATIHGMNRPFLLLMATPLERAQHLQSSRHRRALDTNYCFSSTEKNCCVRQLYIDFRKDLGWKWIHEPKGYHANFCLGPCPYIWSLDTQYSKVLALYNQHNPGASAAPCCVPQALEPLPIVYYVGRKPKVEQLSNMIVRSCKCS
T1 sequence (Q14766 873-1507 partner): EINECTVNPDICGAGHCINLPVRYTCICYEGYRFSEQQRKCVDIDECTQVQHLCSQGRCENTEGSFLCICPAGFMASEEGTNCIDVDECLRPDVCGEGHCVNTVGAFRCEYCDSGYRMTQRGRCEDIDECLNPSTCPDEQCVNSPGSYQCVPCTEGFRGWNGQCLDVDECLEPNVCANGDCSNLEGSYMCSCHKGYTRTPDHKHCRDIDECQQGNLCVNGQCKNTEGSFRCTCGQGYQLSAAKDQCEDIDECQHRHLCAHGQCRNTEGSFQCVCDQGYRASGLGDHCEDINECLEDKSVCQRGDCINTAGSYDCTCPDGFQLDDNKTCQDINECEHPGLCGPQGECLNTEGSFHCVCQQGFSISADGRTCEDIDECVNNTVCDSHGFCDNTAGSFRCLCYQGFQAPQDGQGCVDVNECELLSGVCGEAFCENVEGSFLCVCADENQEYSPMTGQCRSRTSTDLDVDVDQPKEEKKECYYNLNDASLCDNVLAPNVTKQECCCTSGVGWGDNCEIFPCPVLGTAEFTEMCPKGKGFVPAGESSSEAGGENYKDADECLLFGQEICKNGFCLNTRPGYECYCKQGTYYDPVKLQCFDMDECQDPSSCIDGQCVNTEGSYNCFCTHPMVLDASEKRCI
From the text: (§1) Biolayer Interferometry (BLI):BLI is a label-free technology for optically measuring biomolecular interactions, e.g., between a ligand immobilized on the biosensor tip surface and an analyte in solution. BLI provides the ability to monitor binding specificity, rates of association and dissociation, or concentration, with precision and accuracy. BLI platform instruments are commercially available, for example, from ForteBio and are commonly referred to as the Octet® System.
(§2) BLI-based binding assays are widely used in the art for measuring affinities and kinetics of antibodies to antigens. It is a label-free technology in which biomolecular interactions are analyzed on the basis of optical interference. One of the proteins, for example, an antibody being tested, can be immobilized on the biosensor tip. When the other protein in solution, for example, an antigen, becomes bound to the immobilized antibody, it causes a shift in the interference pattern, which can be measured in real-time. This allows the monitoring of binding specificity, rates of association and dissociation, as well as concentration dependency. […] Due to its ease of use and fast results, BLI-based assays such as the Octet® system (available from ForteBio/Molecular Devices, Fremont Calif.), are particularly convenient when used as an initial screening method to identify and separate a pool of “binders” from a pool of “non-binders” or “weak binders” in the screening process.
(§3) Table 8 below provides non-limiting examples of high-affinity, context-independent proTGFβ1 antibodies encompassed by the present invention. The table provides representative results from in vitro binding assays, as measured by Octet®.
(§4) Column (A) of the table lists monoclonal antibodies with discrete amino acid sequences. […] Columns (B), (D), (E) and (F) provide affinities of each of the listed antibodies, measured in KD. […] Average KD values of (B) and (C) are shown in the corresponding column (D), which collectively represents affinities of the antibodies to ECM- or matrix-associated proTGFβ1 complexes. Similarly, Average KD values of (E) and (F) are shown in the corresponding column (G), which collectively represents affinities of the antibodies to cell-surface or cell-associated proTGFβ1 complexes. Finally, relative ratios between the average KD values from columns (D) and (G) are expressed as “fold bias” in column (H). Thus, the greater the number of column (H) is, the greater bias exists for the particular antibody, when comparing binding preferences of the antibody for matrix-associated complexes and cell-surface complexes. This is one way of quantitatively representing and comparing inherent bias of antibodies to their target complexes. Such analyses may be useful in guiding the selection process for a candidate antibody for particular therapeutic use.
(§5) In some embodiments, the binding affinity of an antibody, or antigen binding portion thereof, to an antigen (e.g., protein complex), such as presenting molecule-proTGFβ1 complexes, is determined using an Octet assay. In some embodiments, an Octet assay is an assay that determines one or more a kinetic parameters indicative of binding between an antibody and antigen. In some embodiments, an Octet® system (ForteBio, Menlo Park, Calif.) is used to determine the binding affinity of an antibody, or antigen binding portion thereof, to presenting molecule-proTGFβ1 complexes. For example, binding affinities of antibodies may be determined using the fortéBio Octet QKe dip and read label free assay system utilizing bio-layer interferometry. In some embodiments, antigens are immobilized to biosensors (e.g., streptavidin-coated biosensors) and the antibodies and complexes (e.g., biotinylated presenting molecule-proTGFβ1 complexes) are presented in solution at high concentration ([…]) to measure binding interactions. […]

[4] = biological target: T2, recombinant human LRRC33-proTGFβ1 complex (Homo sapiens, UniProt P01137); assay: as above; settings: in M
T2 construct: made in house
T2 sequence (P01137 30-390): as the sequence (P01137 30-390) above
T2 sequence (Q86YC3 19-650 partner limits assumed): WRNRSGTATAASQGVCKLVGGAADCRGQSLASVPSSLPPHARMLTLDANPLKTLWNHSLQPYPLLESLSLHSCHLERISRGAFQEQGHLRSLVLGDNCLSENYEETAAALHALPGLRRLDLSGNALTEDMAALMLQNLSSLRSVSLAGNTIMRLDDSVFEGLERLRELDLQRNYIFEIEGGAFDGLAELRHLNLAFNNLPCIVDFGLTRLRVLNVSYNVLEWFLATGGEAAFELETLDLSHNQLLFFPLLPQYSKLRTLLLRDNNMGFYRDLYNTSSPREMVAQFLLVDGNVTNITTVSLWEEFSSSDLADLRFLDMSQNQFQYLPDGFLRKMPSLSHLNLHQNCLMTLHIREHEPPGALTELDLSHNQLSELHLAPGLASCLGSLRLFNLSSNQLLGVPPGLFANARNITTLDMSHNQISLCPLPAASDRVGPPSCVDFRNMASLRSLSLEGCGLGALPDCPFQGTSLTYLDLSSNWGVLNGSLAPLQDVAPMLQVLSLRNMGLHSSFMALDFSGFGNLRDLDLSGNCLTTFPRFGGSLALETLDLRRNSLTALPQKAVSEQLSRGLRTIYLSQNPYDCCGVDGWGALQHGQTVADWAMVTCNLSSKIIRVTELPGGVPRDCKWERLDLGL
From the text: as §1, §2, §3, §4, §5

[5] = biological target: T3, recombinant human LTBP3-proTGFβ1 complex (Homo sapiens, UniProt P01137); assay: as above; settings: in M
T3 construct: made in house; host or cells: Expi293F cells, transient co-transfection
T3 sequence (P01137 30-390): as the sequence (P01137 30-390) above
T3 sequence (Q9NS15 866-1039 partner limits assumed): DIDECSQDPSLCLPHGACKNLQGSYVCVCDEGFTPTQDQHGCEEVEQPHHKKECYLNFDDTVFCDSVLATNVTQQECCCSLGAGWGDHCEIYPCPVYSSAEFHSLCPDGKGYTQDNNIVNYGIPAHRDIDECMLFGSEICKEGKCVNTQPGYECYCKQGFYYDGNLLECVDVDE
From the text: as §1, §2, §3, §4, §5

[6] = biological target: T4, recombinant human GARP-proTGFβ1 complex (Homo sapiens, UniProt P01137); assay: as above; settings: in M
T4 construct: made in house
T4 sequence (P01137 30-390): as the sequence (P01137 30-390) above
T4 sequence (Q14392 20-627 partner limits assumed): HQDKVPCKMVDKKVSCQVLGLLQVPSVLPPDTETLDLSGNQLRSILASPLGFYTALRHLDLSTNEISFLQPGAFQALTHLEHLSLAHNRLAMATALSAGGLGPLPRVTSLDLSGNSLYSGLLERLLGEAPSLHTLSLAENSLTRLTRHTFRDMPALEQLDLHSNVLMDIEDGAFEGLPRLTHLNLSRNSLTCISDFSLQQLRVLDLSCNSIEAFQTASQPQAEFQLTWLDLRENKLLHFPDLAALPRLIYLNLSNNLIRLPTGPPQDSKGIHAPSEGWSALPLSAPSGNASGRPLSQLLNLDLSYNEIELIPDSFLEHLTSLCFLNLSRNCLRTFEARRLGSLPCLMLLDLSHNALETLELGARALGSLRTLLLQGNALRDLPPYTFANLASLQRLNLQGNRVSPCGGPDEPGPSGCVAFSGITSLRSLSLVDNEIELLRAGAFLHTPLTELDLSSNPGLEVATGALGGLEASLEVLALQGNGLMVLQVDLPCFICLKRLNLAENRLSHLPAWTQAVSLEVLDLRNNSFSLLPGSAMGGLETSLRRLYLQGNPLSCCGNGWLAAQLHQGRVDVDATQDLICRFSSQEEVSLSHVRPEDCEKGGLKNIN
From the text: as §1, §2, §3, §4, §5

[7] = system: matrix-associated (LTBP1/LTBP3) and cell-associated (GARP/LRRC33) proTGFβ1 complexes; assay: Octet: average KD and fold bias, matrix- vs cell-associated complexes; assay type: binding, human; settings: for Kd: average KD of (E) and (F), cell-associated complexes, read-out: (G) Cell AVRG; for (H) G/D (fold bias): ratio of average KD cell-associated / matrix-associated
From the text: Column (A) of the table lists monoclonal antibodies with discrete amino acid sequences. […] Columns (B), (D), (E) and (F) provide affinities of each of the listed antibodies, measured in KD. […] Average KD values of (B) and (C) are shown in the corresponding column (D), which collectively represents affinities of the antibodies to ECM- or matrix-associated proTGFβ1 complexes. Similarly, Average KD values of (E) and (F) are shown in the corresponding column (G), which collectively represents affinities of the antibodies to cell-surface or cell-associated proTGFβ1 complexes. Finally, relative ratios between the average KD values from columns (D) and (G) are expressed as “fold bias” in column (H). […] This is one way of quantitatively representing and comparing inherent bias of antibodies to their target complexes.
Average KD values between the two matrix-associated and cell-associated complexes are calculated, respectively (see columns (D) and (G)). These average KD values can then be used to ask whether bias in binding activities exists between complexes associated with matrix vs. complexes associated with cell surface (e.g., immune cells). Bias may be expressed as “fold-difference” in the average KD values, as illustrated in Table 8.

[8] = biological target: T5, hLRRC33-proTGFβ1 (Homo sapiens, UniProt P01137); assay: MSD-SET solution equilibrium titration binding; settings: MSD-SET at equilibrium, hIgG4, human complex; in M
T5 construct: made in house
T5 sequence (P01137 30-390): as the sequence (P01137 30-390) above
T5 sequence (Q86YC3 19-650 partner limits assumed): as the sequence (Q86YC3 19-650 partner limits assumed) above
From the text: (§6) Solution Equilibrium Titration (SET): The SET is an assay whereby binding between two molecules (such as an antigen and an antibody that binds the antigen) can be measured at equilibrium in a solution. For example, Meso-Scale Discovery (“MSD”)-based SET, or MSD-SET, is a useful mode of determining dissociation constants for particularly high-affinity protein-protein interactions at equilibrium, such as picomolar-affinity antibodies binding to their antigens (see, for example: Ducata et al. (2015) J Biomolecular Screening 20(10): 1256-1267). The SET-based assays are particularly useful for determining KD values of antibodies with sub-nanomolar (e.g., picomolar) affinities.
(§7) In view of this, it is contemplated that assays that measure binding affinities of such antibodies at equilibrium may more accurately represent the mode of target engagement in vivo. Thus, MSD-SET-based binding assays (or other suitable assays) may be performed, as exemplified in Table 9 below.
(§8) Solution equilibrium titration (“SET”) is an assay whereby binding between two molecules (such as an antigen and an antibody that binds the antigen) can be measured at equilibrium in a solution. For example, Meso-Scale Discovery (“MSD”)-based SET, or MSD-SET, is a useful mode of determining dissociation constants for particularly high-affinity protein-protein interactions at equilibrium (see, for example: Ducata et al. (2015) J Biomolecular Screening 20(10): 1256-1267). The SET-based assays are particularly useful for determining KD values of antibodies with sub-nanomolar (e.g., picomolar) affinities.
(§9) For solution equilibrium titration-based binding assays, protein complexes that comprise one of the presenting molecules such as those shown above may be employed as antigen (presenting molecule-TGFβ1 complex, or an LLC). Test antibodies are allowed to form antigen-antibody complex in solution. Antigen-antibody reaction mixtures are incubated to allow an equilibrium to be reached; the amount of the antigen-antibody complex present in the assay reactions can be measured by suitable means well known in the art. As compared to BLI-based assays, SET-based assays are less affected by on/off rates of the antigen-antibody complex, allowing sensitive detection of very high affinity interactions.

[9] = biological target: T6, hLTBP1-proTGFβ1 (Homo sapiens, UniProt P01137); assay: MSD-SET solution equilibrium titration binding; settings: MSD-SET at equilibrium, hIgG4, human complex; in M
T6 construct: made in house; host or cells: Expi293F cells, transient co-transfection
T6 sequence (P01137 30-390): as the sequence (P01137 30-390) above
T6 sequence (Q14766 873-1507 partner): as the sequence (Q14766 873-1507 partner) above
From the text: as §6, §7, §8, §9

[10] = biological target: T7, hGARP-proTGFβ1 (Homo sapiens, UniProt P01137); assay: MSD-SET solution equilibrium titration binding; settings: MSD-SET at equilibrium, hIgG4, human complex; in M
T7 construct: made in house
T7 sequence (P01137 30-390): as the sequence (P01137 30-390) above
T7 sequence (Q14392 20-627 partner limits assumed): as the sequence (Q14392 20-627 partner limits assumed) above
From the text: as §6, §7, §8, §9

[11] = biological target: T8, hLTBP3-proTGFβ1 (Homo sapiens, UniProt P01137); assay: MSD-SET solution equilibrium titration binding; settings: MSD-SET at equilibrium, hIgG4, human complex; in M
T8 construct: made in house; host or cells: Expi293F cells, transient co-transfection
T8 sequence (P01137 30-390): as the sequence (P01137 30-390) above
T8 sequence (Q9NS15 866-1039 partner limits assumed): as the sequence (Q9NS15 866-1039 partner limits assumed) above
From the text: as §6, §7, §8, §9

Molecule	(B) hLTBP1, Matrix-associated proTGFb1 (KD) [3]	(F) hLRRC33, Cell-associated proTGFb1 (KD) [4]	(C) hLTBP3, Matrix-associated proTGFb1 (KD) [5]	(E) hGARP, Cell-associated proTGFb1 (KD) [6]	(F) hLRRC33, Cell-associated proTGFβ1 KD [8]	(B) hLTBP1, Matrix-associated proTGFβ1 KD [9]	(E) hGARP, Cell-associated proTGFβ1 KD [10]	(C) hLTBP3, Matrix-associated proTGFβ1 KD [11]	Kd [1]	matrix/LTBP-bias in relative affinities between at least one matrix-associated and at least one cell-associated complex [2]	Kd ([2]; MSD-SET, average KD of (B) and (C), read-out: (D) ECM AVRG)	(H) G/D (fold bias) ([2]; MSD-SET, ratio of average KD cell-associated / matrix-associated)	Kd [7]	(H) G/D (fold bias) [7]
Ab36: monoclonal antibody; VH SEQ ID NO: 253, VL SEQ ID NO: 236 (antibody, V domains shown) VH: EVQLLESGGGLVQPGGSLRLSCAASGFTFRNYAMSWVRQAPGKGLEWVSSISGSGGATYYADSVKGRFTISRDNSKNTLYLQMNSLRAEDTAVYYCARVSSGHWDLDYWGQGTLVTVSS VL: [… about 100 residues …]FTFGQGTKVEIK	3.53E−10	1.42E−09	4.15E−10	1.28E−08					384 pM				7110 pM	18.5156 fold
Ab7: monoclonal antibody; VH SEQ ID NO: 235, VL SEQ ID NO: 236 (antibody, V domains shown) VH: EVQLLESGGGLVQPGGSLRLSCAASGFTFADYAMTWVRQAPGKGLEWVSAISGTGAHTYYADSVKGRFTISRDNSKNTLYLQMNSLRAEDTAVYYCARVSSGHWDFDYWGQGTLVTVSS VL: [… about 100 residues …]FTFGQGTKVEIK	4.87E−10	1.03E−08	4.17E−10	1.80E−08					452 pM				14200 pM	31.3 fold
Ab9: monoclonal antibody; VH SEQ ID NO: 238, VL SEQ ID NO: 236 (antibody, V domains shown) VH: QVQLVESGGGVVQPGGSLRLSCAASGFTFSSFAMTWVRQAPGKGLEWVSAISGSGAATYFADSVKGRFTISRDNSKNTLYLQMNSLRAEDTAVYYCARVSSGHWDFDYWGQGTLVTVSS VL: [… about 100 residues …]FTFGQGTKVEIK	3.48E−10	1.30E−09	2.84E−10	1.55E−08					316 pM				8400 pM	26.58 fold

The next lines start with results.

(B) hLTBP1, Matrix-associated proTGFb1 (KD) [3]	(F) hLRRC33, Cell-associated proTGFb1 (KD) [4]	(C) hLTBP3, Matrix-associated proTGFb1 (KD) [5]	(E) hGARP, Cell-associated proTGFb1 (KD) [6]	(F) hLRRC33, Cell-associated proTGFβ1 KD [8]	(B) hLTBP1, Matrix-associated proTGFβ1 KD [9]	(E) hGARP, Cell-associated proTGFβ1 KD [10]	(C) hLTBP3, Matrix-associated proTGFβ1 KD [11]	Molecule	Kd [1]	matrix/LTBP-bias in relative affinities between at least one matrix-associated and at least one cell-associated complex [2]	Kd ([2]; MSD-SET, average KD of (B) and (C), read-out: (D) ECM AVRG)	(H) G/D (fold bias) ([2]; MSD-SET, ratio of average KD cell-associated / matrix-associated)	Kd [7]	(H) G/D (fold bias) [7]
1.59E−10	5.45E−10	1.69E−10	7.37E−09	1.10E−09	2.70E−10	1.10E−09	2.60E−10	Ab35: monoclonal antibody; VH SEQ ID NO: 252, VL SEQ ID NO: 236 (antibody, V domains shown) VH: EVQLLESGGGLVQPGGSLRLSCAASGFTFRNYAMSWVRQAPGKGLEWVSSISGSGGATYYADSVKGRFTISRDNSKNTLYLQMNSLRAEDTAVYYCARVSSYLWDFDYWGQGTLVTVSS VL: [… about 100 residues …]FTFGQGTKVEIK	164 pM	more than five-fold	265 pM	4.15 fold	3960 pM	24.13 fold
3.29E−10	1.00E−08	3.02E−10	1.54E−08					Ab8: monoclonal antibody; VH SEQ ID NO: 237, VL SEQ ID NO: 236 (antibody, V domains shown) VH: QVQLVESGGGVVQPGRSLRLSCAASGFTFSDYAMVWVRQAPGKGLEWVSAISGSGFTTYYADSVKGRFTISRDNSKNTLYLQMNSLRAEDTAVYYCARVSSGHWDFDYWGQGTLVTVSS VL: [… about 100 residues …]FTFGQGTKVEIK	316 pM				12700 pM	40.25 fold

— patent US11130803B2, “Isoform-selective TGFβ1 inhibitors and use thereof” (Scholar Rock, Inc., priority 2018, dated 2021)
